The other results are listed elsewhere or left out. At the low end of the ranking, values are background and their order means little.
The sequences below were run on MYC (p64) + MAX (p21), in MYC:MAX (assay: protein-binding microarray (anti-MAX antibody)). Details: PBM: 15 mM Tris-HCl pH 7.5, 100 mM KCl, 0.075% NP40, 7.5 mM beta-mercaptoethanol, 375 ng/ul BSA, 8 ng/ul poly(dA-dT):(dA-dT), 550 ng complex, 60 min, room …; high values mean tight binding; double strand, one strand shown; sequences stand for … in CCGGC…TTAATAGCTAAGATTACTATATCGACG.

Sequence	binding signal (log2 normalized fluorescence)
TGATGACGCGTA	0.226
TGAAATCAAGTA	0.0178
TGACGCATGGTA	0.803
TGATAAAACGTA	0.0636
TGAAAATCAGTA	-0.13
TGAGTGTCAGTA	0.191
TGACGACCTGTA	0.141
TGATACGCAGTA	-0.0514
TGAGACCAGGTA	0.00989
TGACCATTAGTA	0.233
TGAGTGGTTGTA	0.154
TGAGGGTACGTA	0.0262
TGAACGTTGGTA	0.0604
TGAAGATCCGTA	-0.0818
TGATCGTAGGTA	-0.156
TGAAGGAAGGTA	0.0484
TGACTTTTGGTA	-0.0102
TGACCACAGGTA	0.256
TGATTATCAGTA	0.127
TGATGCGGGGTA	0.343
TGACCGCGAGTA	0.44
TGACTCTTCGTA	0.076
TGAGCTCATGTA	0.339
TGAAACGAAGTA	0.113
AGACGCGTGGTA	0.53

Sequence	binding signal (log2 normalized fluorescence)
TGAGGCGTAGTA	-0.212
TGACCTCACGTA	0.274
TGAGTCAGAGTA	-0.0589
TGAAAGGCGGTA	0.129
TGAAGGGGAGTA	0.294
TGAATCTAAGTA	-0.0537
TGACTGGCAGTA	-0.0111
TGACGGGCTGTA	0.00969
TGAAGGAGCGTA	0.0684
TGATGAACCGTA	0.178
TGATCCACAGTA	0.224
TGATTTTCAGTA	-0.284
TGACCCCGTGTA	0.42
TGACACGTGGTC	1.02
TGACACTTTGTC	0.152
TGAGAATTAGTA	-0.155
TGATATAGTGTA	0.0483
TGATTGCCTGTA	0.0735
TGAGGCGGGGTA	0.411
TGACTGGCTGTA	0.0819
TGACCGAATGTA	0.333
TGATGACATGTA	0.414
TGAGCTGCGGTA	-0.028
TGATAATCAGTA	0.0796
TTACACCAGGTA	0.388

Sequence	binding signal (log2 normalized fluorescence)
TGAGATTCTGTA	-0.0451
TGAGTAGGAGTA	-0.186
TGACACGTAAAA	0.384
TAACTCGTTGTA	0.36
TGAGCATGGGTA	0.371
TGAGTGAATGTA	0.0548
TGATCCCATGTA	0.149
TGACTAACAGTA	0.0855
TGAATACAAGTA	0.136
TGACTCAATGTA	0.121
TGACCGGCTGTA	0.152
TAACACATGGTA	0.6
TGAGTATCGGTA	-0.274
TGAGGATTCGTA	-0.123
TGAGGGCTAGTA	-0.0338
TGATCGCGGGTA	-0.0139
TGAGATTCGGTA	-0.225
TGAGTAACAGTA	-0.0818
TGCCGCGTGGTA	0.764
TGATTTTATGTA	-0.0404
TGAGAGACGGTA	-0.00994
TGAACAGCCGTA	0.0392
TGATCGAAGGTA	-0.225
TGAAGTTGGGTA	-0.198
TGAAGCCATGTA	0.311

Sequence	binding signal (log2 normalized fluorescence)
TGAGCTCCGGTA	-0.109
TGATCTAATGTA	-0.00321
TCGAACGTGGTA	0.51
TGACAACTTGTA	0.122
TGAGCCGGAGTA	-0.288
TGATCGCAGGTA	-0.0948
TGACACGTGAGC	0.713
TGAGTTTACGTA	-0.0452
TGAGCTTTAGTA	-0.0706
TGATTGTTCGTA	-0.0465
TGATATGGCGTA	0.0154
TGCCACGTTGTA	0.496
TGAGTGAAGGTA	-0.0839
TGACTTGGTGTA	0.0699
TGGCTCGTGGTA	0.282
TGAGATTCCGTA	-0.159
TTCCACGTGGTA	0.707
TGACAATATGTA	0.32
TGAACGTGTGTA	0.493
TGATAGATGGTA	0.047
TGACATTTGGTG	0.186
TGATACCTGGTG	-0.154
TGATGCCCGGTA	0.143
TGAGAAAGCGTA	-0.0364
TGAGGGTCCGTA	0.127

Sequence	binding signal (log2 normalized fluorescence)
TGAGGTATTGTA	0.0697
TGATATCGCGTA	0.164
TGAAAAAAAGTA	-0.0264
TGAACTTCAGTA	0.133
TGACATGCGGTA	0.515
TGACACGTGGGG	1
TCATACGTGGAA	0.29
TGATACATGGTA	0.427
TGAAGTGAGGTA	0.266
TGAGTCCGGGTA	-0.281
TGATCCGCAGTA	-0.0847
TGACAGTGAGTA	0.167
TGATGATGGGTA	0.0323
TGAAGGTAAGTA	0.092
TGAACGCCCGTA	0.114
TGAGGGACCGTA	0.0302
TGAAGGCGCGTA	0.0961
TGAGGGGTGGTA	0.636
TGATAGTACGTA	0.131
TGATTGATTGTA	-0.146
TGAAGTCGCGTA	0.0145
TGACCTCGAGTA	0.361
TGACACGTAAGA	0.309
TGATCCAAGGTA	0.104
TGAGCGACCGTA	0.193

Sequence	binding signal (log2 normalized fluorescence)
TGACCATCAGTA	0.276
TGACGGAGAGTA	-0.141
TGAGGAAGCGTA	-0.0931
TGAAGCGTTGTA	0.397
TGAGGAGAAGTA	-0.287
TGACACCCGGTA	0.337
TGAATTGCGGTA	0.00543
TGACTGAGGGTA	-0.0498
TGACCAAAAGTA	0.0878
TAACACGTCGTA	0.497
TGACGTTTCGTA	0.178
TGATCCTCGGTA	-0.0203
TGAAGCTCCGTA	-0.0343
TGAATGTTAGTA	0.3
TGATGAAATGTA	0.0917
TGATATAGCGTA	-0.206
TGAGTTCGCGTA	-0.0452
TGATTCGTGGTA	0.292
TGATCAGACGTA	0.0319
TGATTAAACGTA	-0.169
TGACACGTGCCC	0.7
AGACTCGTGGTA	0.67
TGACTCTAGGTA	0.131
TGACCCACAGTA	0.0783
TGACACGGCGTA	0.188

Sequence	binding signal (log2 normalized fluorescence)
TGAACGTAAGTA	-0.107
TGACATGTGTTA	0.626
TGTCACGTGCTA	0.591
TGATGGTTTGTA	0.255
TGCCACGTGTTA	0.969
TGAGTCTGCGTA	0.0859
TGAGGGGATGTA	0.369
TGATAGATCGTA	-0.162
TGATTTGCCGTA	-0.208
TGAGCCTTGGTA	-0.0809
TGAATTAGAGTA	-0.143
TGATGAGCTGTA	-0.135
TGAACGTCAGTA	0.168
TGAAAAAGCGTA	0.155
TGATCTCCCGTA	-0.0606
TGATAGATTGTA	-0.194
TGACTCTTGGTA	0.16
TGAGGATGGGTA	-0.0151
TGAGTGGAGGTA	0.0432
TGAGGTGTCGTA	0.0225
TGAAGTCCCGTA	-0.0586
TGACACCCAGTA	0.219
TGATTCTCGGTA	-0.129
TGACGATATGTA	-0.127
TGAGTTCGAGTA	-0.115

Source: paper PMC5515408
